From the supplement of paper PMC8728848
The other results are listed elsewhere or left out.

Columns and labels:
Test in all cases: glycan array binding signal (z-score within array); higher = stronger binding
Conditions in all cases: glycan notation: IUPAC condensed, linker removed
[1] = target: Fuc(a1-2)Gal
Method in brief: (§1)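 Columns mapping to the same glycan were averaged after glycan names were converted to IUPAC-condensed notation. The data come from 3228 arrays in the Consortium for Functional Glycomics database, limited to those with an available protein sequence. Binding is reported as a within-array Z-score averaged across arrays of one protein sequence and across linkers.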

[2] = target: Fuc(a1-2)Gal(b1-3)GalNAc
Method in brief: as §1

[3] = target: Fuc(a1-2)Gal(b1-3)GalNAc(a1-3)[Fuc(a1-2)]Gal(b1-4)Glc
Method in brief: as §1

[4] = target: Fuc(a1-2)Gal(b1-3)GalNAc(a1-3)[Fuc(a1-2)]Gal(b1-4)GlcNAc
Method in brief: as §1

[5] = target: Fuc(a1-2)Gal(b1-3)GalNAc(b1-3)Gal
Method in brief: as §1

[6] = target: Fuc(a1-2)Gal(b1-3)GalNAc(b1-3)Gal(a1-4)Gal(b1-4)Glc
Method in brief: as §1

[7] = target: Fuc(a1-2)Gal(b1-3)GalNAc(b1-4)[Neu5Ac(a2-3)]Gal(b1-4)Glc
Method in brief: as §1

[8] = target: Fuc(a1-2)Gal(b1-3)GlcNAc
Method in brief: as §1

[9] = target: Fuc(a1-2)Gal(b1-3)GlcNAc(b1-2)Man(a1-3)[Fuc(a1-2)Gal(b1-3)GlcNAc(b1-2)Man(a1-6)]Man(b1-4)GlcNAc(b1-4)GlcNAc
Method in brief: as §1

[10] = target: Fuc(a1-2)Gal(b1-3)GlcNAc(b1-2)Man(a1-3)[Fuc(a1-2)Gal(b1-3)GlcNAc(b1-2)Man(a1-6)]Man(b1-4)GlcNAc(b1-4)[Fuc(a1-6)]GlcNAc
Method in brief: as §1

[11] = target: Fuc(a1-2)Gal(b1-3)GlcNAc(b1-3)Gal(b1-4)Glc
Method in brief: as §1

[12] = target: Fuc(a1-2)Gal(b1-3)GlcNAc(b1-3)GalNAc
Method in brief: as §1

[13] = target: Fuc(a1-2)Gal(b1-3)GlcNAc(b1-3)[Fuc(a1-2)Gal(b1-3)GlcNAc(b1-6)]GalNAc
Method in brief: as §1

[14] = target: Fuc(a1-2)Gal(b1-3)GlcNAc(b1-3)[Gal(b1-4)GlcNAc(b1-6)]Gal(b1-4)Glc
Method in brief: as §1

[15] = target: Fuc(a1-2)Gal(b1-3)GlcNAc(b1-3)[Neu5Ac(a2-6)Gal(b1-4)GlcNAc(b1-6)]Gal(b1-4)Glc
Method in brief: as §1

[16] = target: Fuc(a1-2)Gal(b1-3)GlcNAc6S
Method in brief: as §1

[17] = target: Fuc(a1-2)Gal(b1-3)[Fuc(a1-4)]GlcNAc
Method in brief: as §1

[18] = target: Fuc(a1-2)Gal(b1-3)[Fuc(a1-4)]GlcNAc(b1-2)Man(a1-3)[Fuc(a1-2)Gal(b1-3)[Fuc(a1-4)]GlcNAc(b1-2)Man(a1-3)]Man(b1-4)GlcNAc(b1-4)GlcNAc
Method in brief: as §1

[19] = target: Fuc(a1-2)Gal(b1-3)[Fuc(a1-4)]GlcNAc(b1-2)Man(a1-3)[Fuc(a1-2)Gal(b1-3)[Fuc(a1-4)]GlcNAc(b1-2)Man(a1-6)]Man(b1-4)GlcNAc(b1-4)[Fuc(a1-6)]GlcNAc(b1-4)[Fuc(a1-6)]GlcNAc
Method in brief: as §1

[20] = target: Fuc(a1-2)Gal(b1-3)[Fuc(a1-4)]GlcNAc(b1-3)[Fuc(a1-3)[Gal(b1-4)]GlcNAc(b1-6)]Gal(b1-4)Glc
Method in brief: as §1

[21] = target: Fuc(a1-2)Gal(b1-3)[Fuc(a1-4)]GlcNAc(b1-3)[Gal(b1-4)GlcNAc(b1-6)]Gal(b1-4)Glc
Method in brief: as §1

[22] = target: Fuc(a1-2)Gal(b1-4)Glc
Method in brief: as §1

[23] = target: Fuc(a1-2)Gal(b1-4)Glc6S
Method in brief: as §1

[24] = target: Fuc(a1-2)Gal(b1-4)GlcNAc
Method in brief: as §1

[25] = target: Fuc(a1-2)Gal(b1-4)GlcNAc(b1-2)Man
Method in brief: as §1

[26] = target: Fuc(a1-2)Gal(b1-4)GlcNAc(b1-2)Man(a1-3)[Fuc(a1-2)Gal(b1-4)GlcNAc(b1-2)Man(a1-6)]Man(b1-4)GlcNAc(b1-4)GlcNAc
Method in brief: as §1

[27] = target: Fuc(a1-2)Gal(b1-4)GlcNAc(b1-2)Man(a1-3)[Fuc(a1-2)Gal(b1-4)GlcNAc(b1-2)Man(a1-6)]Man(b1-4)GlcNAc(b1-4)[Fuc(a1-6)]GlcNAc
Method in brief: as §1

[28] = target: Fuc(a1-2)Gal(b1-4)GlcNAc(b1-2)[Fuc(a1-2)Gal(b1-4)GlcNAc(b1-4)]Man(a1-3)[Fuc(a1-2)Gal(b1-4)GlcNAc(b1-2)Man(a1-6)]Man(b1-4)GlcNAc(b1-4)GlcNAc
Method in brief: as §1

[29] = target: Fuc(a1-2)Gal(b1-4)GlcNAc(b1-3)Gal(b1-4)GlcNAc
Method in brief: as §1

[30] = target: Fuc(a1-2)Gal(b1-4)GlcNAc(b1-3)Gal(b1-4)GlcNAc(b1-2)Man(a1-3)[Fuc(a1-2)Gal(b1-4)GlcNAc(b1-3)Gal(b1-4)GlcNAc(b1-2)Man(a1-6)]Man(b1-4)GlcNAc(b1-4)GlcNAc
Method in brief: as §1

[31] = target: Fuc(a1-2)Gal(b1-4)GlcNAc(b1-3)Gal(b1-4)GlcNAc(b1-3)Gal(b1-4)GlcNAc
Method in brief: as §1

[32] = target: Fuc(a1-2)Gal(b1-4)GlcNAc(b1-3)GalNAc
Method in brief: as §1

[33] = target: Fuc(a1-2)Gal(b1-4)GlcNAc(b1-3)[Fuc(a1-2)Gal(b1-4)GlcNAc(b1-6)]GalNAc
Method in brief: as §1

[34] = target: Fuc(a1-2)Gal(b1-4)GlcNAc(b1-3)[Fuc(a1-3)[Gal(b1-4)]GlcNAc(b1-6)]Gal(b1-4)Glc
Method in brief: as §1

[35] = target: Fuc(a1-2)Gal(b1-4)GlcNAc(b1-6)GalNAc
Method in brief: as §1

[36] = target: Fuc(a1-2)Gal(b1-4)GlcNAc6S
Method in brief: as §1

[37] = target: Fuc(a1-2)Gal(b1-4)[Fuc(a1-3)]GlcNAc
Method in brief: as §1

[38] = target: Fuc(a1-2)Gal(b1-4)[Fuc(a1-3)]GlcNAc(b1-2)Man(a1-3)[Fuc(a1-2)Gal(b1-4)[Fuc(a1-3)]GlcNAc(b1-2)Man(a1-6)]Man(b1-4)GlcNAc(b1-4)[Fuc(a1-6)]GlcNAc
Method in brief: as §1

[39] = target: Fuc(a1-2)Gal(b1-4)[Fuc(a1-3)]GlcNAc(b1-2)[Fuc(a1-2)Gal(b1-4)[Fuc(a1-3)]GlcNAc(b1-4)]Man(a1-3)[Fuc(a1-2)Gal(b1-4)[Fuc(a1-3)]GlcNAc(b1-2)Man(a1-6)]Man(b1-4)GlcNAc(b1-4)GlcNAc
Method in brief: as §1

[40] = target: Fuc(a1-2)Gal(b1-4)[Fuc(a1-3)]GlcNAc(b1-3)Gal(b1-4)[Fuc(a1-3)]GlcNAc
Method in brief: as §1

[41] = target: Fuc(a1-2)Gal(b1-4)[Fuc(a1-3)]GlcNAc(b1-3)Gal(b1-4)[Fuc(a1-3)]GlcNAc(b1-3)Gal(b1-4)[Fuc(a1-3)]GlcNAc
Method in brief: as §1

[42] = target: Fuc(a1-2)Gal(b1-4)[Fuc(a1-3)]GlcNAc(b1-3)GalNAc
Method in brief: as §1

[43] = target: Fuc(a1-2)Gal(b1-4)[Fuc(a1-3)]GlcNAc(b1-3)[Neu5Ac(a2-6)Gal(b1-4)GlcNAc(b1-6)]Gal(b1-4)Glc
Method in brief: as §1

[44] = target: Fuc(a1-2)Gal3S(b1-4)GlcNAc
Method in brief: as §1

[45] = target: Fuc(a1-2)Gal6S(b1-3)GlcNAc
Method in brief: as §1

[46] = target: Fuc(a1-2)Gal6S(b1-3)GlcNAc6S
Method in brief: as §1

[47] = target: Fuc(a1-2)Gal6S(b1-4)Glc
Method in brief: as §1

[48] = target: Fuc(a1-2)Gal6S(b1-4)Glc6S
Method in brief: as §1

[49] = target: Fuc(a1-2)[Gal(a1-3)]Gal
Method in brief: as §1

[50] = target: Fuc(a1-2)[Gal(a1-3)]Gal(b1-3)GalNAc
Method in brief: as §1

[51] = target: Fuc(a1-2)[Gal(a1-3)]Gal(b1-3)GalNAc(b1-3)Gal(a1-4)Gal(b1-4)Glc
Method in brief: as §1

[52] = target: Fuc(a1-2)[Gal(a1-3)]Gal(b1-3)GlcNAc
Method in brief: as §1

[53] = target: Fuc(a1-2)[Gal(a1-3)]Gal(b1-3)GlcNAc(b1-2)Man(a1-3)[Fuc(a1-2)[Gal(a1-3)]Gal(b1-3)GlcNAc(b1-2)Man(a1-6)]Man(b1-4)GlcNAc(b1-4)GlcNAc
Method in brief: as §1

[54] = target: Fuc(a1-2)[Gal(a1-3)]Gal(b1-3)GlcNAc(b1-2)Man(a1-3)[Fuc(a1-2)[Gal(a1-3)]Gal(b1-3)GlcNAc(b1-2)Man(a1-6)]Man(b1-4)GlcNAc(b1-4)[Fuc(a1-6)]GlcNAc
Method in brief: as §1

[55] = target: Fuc(a1-2)[Gal(a1-3)]Gal(b1-3)GlcNAc(b1-3)GalNAc
Method in brief: as §1

[56] = target: Fuc(a1-2)[Gal(a1-3)]Gal(b1-3)GlcNAc(b1-6)GalNAc
Method in brief: as §1

[57] = target: Fuc(a1-2)[Gal(a1-3)]Gal(b1-4)Glc
Method in brief: as §1

[58] = target: Fuc(a1-2)[Gal(a1-3)]Gal(b1-4)GlcNAc
Method in brief: as §1

[59] = target: Fuc(a1-2)[Gal(a1-3)]Gal(b1-4)GlcNAc(b1-2)Man
Method in brief: as §1

[60] = target: Fuc(a1-2)[Gal(a1-3)]Gal(b1-4)GlcNAc(b1-2)Man(a1-3)[Fuc(a1-2)[Gal(a1-3)]Gal(b1-4)GlcNAc(b1-2)Man(a1-6)]Man(b1-4)GlcNAc(b1-4)GlcNAc
Method in brief: as §1

B1: PfulAvr4 (Pseudocercospora fuligena) (protein)
chain: HHHHHHDYKDDDDKTYVQDKTPAFVCPAADIKTTKCLGPKDCLYPSPKTCNGYIQCSPADDSYLTGIIHEMPCPSGLLWNDNKKWCDWPENTTCGLVKSAGATEVDATKQGPTPGKYHG
[1]
  glycan array binding signal (z-score): -0.028
[2]
  glycan array binding signal (z-score): -0.107
[3]
  glycan array binding signal (z-score): -0.126
[4]
  glycan array binding signal (z-score): -0.043
[5]
  glycan array binding signal (z-score): -0.098
[6]
  glycan array binding signal (z-score): -0.068
[7]
  glycan array binding signal (z-score): -0.13
[8]
  glycan array binding signal (z-score): -0.1
[9]
  glycan array binding signal (z-score): 0.455
[10]
  glycan array binding signal (z-score): 0.058
[11]
  glycan array binding signal (z-score): -0.135
[12]
  glycan array binding signal (z-score): -0.069
[13]
  glycan array binding signal (z-score): -0.074
[14]
  glycan array binding signal (z-score): -0.126
[15]
  glycan array binding signal (z-score): -0.127
[16]
  glycan array binding signal (z-score): -0.168
[17]
  glycan array binding signal (z-score): -0.041
[18]
  glycan array binding signal (z-score): 1.42
[19]
  glycan array binding signal (z-score): 0.148
[20]
  glycan array binding signal (z-score): -0.076
[21]
  glycan array binding signal (z-score): -0.112
[22]
  glycan array binding signal (z-score): -0.059
[23]
  glycan array binding signal (z-score): -0.14
[24]
  glycan array binding signal (z-score): -0.177
[25]
  glycan array binding signal (z-score): 0.198
[26]
  glycan array binding signal (z-score): -0.118
[27]
  glycan array binding signal (z-score): 0.297
[28]
  glycan array binding signal (z-score): 0.195
[29]
  glycan array binding signal (z-score): -0.157
[30]
  glycan array binding signal (z-score): 0.172
[31]
  glycan array binding signal (z-score): -0.092
[32]
  glycan array binding signal (z-score): -0.117
[33]
  glycan array binding signal (z-score): -0.054
[34]
  glycan array binding signal (z-score): -0.102
[35]
  glycan array binding signal (z-score): -0.055
[36]
  glycan array binding signal (z-score): -0.141
[37]
  glycan array binding signal (z-score): -0.091
[38]
  glycan array binding signal (z-score): -0.125
[39]
  glycan array binding signal (z-score): 0.683
[40]
  glycan array binding signal (z-score): -0.103
[41]
  glycan array binding signal (z-score): -0.046
[42]
  glycan array binding signal (z-score): -0.18
[43]
  glycan array binding signal (z-score): -0.22
[44]
  glycan array binding signal (z-score): -0.119
[45]
  glycan array binding signal (z-score): -0.18
[46]
  glycan array binding signal (z-score): -0.137
[47]
  glycan array binding signal (z-score): -0.115
[48]
  glycan array binding signal (z-score): -0.184
[49]
  glycan array binding signal (z-score): -0.109
[50]
  glycan array binding signal (z-score): -0.133
[51]
  glycan array binding signal (z-score): -0.115
[52]
  glycan array binding signal (z-score): -0.171
[53]
  glycan array binding signal (z-score): -0.05
[54]
  glycan array binding signal (z-score): 0.101
[55]
  glycan array binding signal (z-score): -0.056
[56]
  glycan array binding signal (z-score): -0.025
[57]
  glycan array binding signal (z-score): -0.08
[58]
  glycan array binding signal (z-score): -0.096
[59]
  glycan array binding signal (z-score): -0.124
[60]
  glycan array binding signal (z-score): -0.075
